{"source": "paper PMC10725492", "about": "(2023)", "binders": {"B1": {"name": "recombinant APP N-terminal ([…]) fragment (domain or fragment)", "chain": "not shown"}}, "biological_target": "SARS-CoV-2 spike (S) protein, recombinant (ACROBiosystems, Catalog#SPN-C52H9) (SARS-CoV-2)", "assay": "SPR"}
{"binder": "B1", "values": [{"measurement": "koff", "result": 0.00234, "unit": "s⁻¹"}]}
